Laboratory results published in the supplement of paper PMC9927326.

Tests used:
Test in all cases: CLSI broth microdilution.
anidulafungin = compound: CCCCCOc1ccc(-c2ccc(-c3ccc(C(=O)N[C@H]4C[C@@H](O)[C@@H](O)NC(=O)[C@@H]5[C@@H](O)[C@@H](C)CN5C(=O)[C@H]([C@@H](C)O)NC(=O)[C@H]([C@H](O)[C@@H](O)c5ccc(O)cc5)NC(=O)[C@@H]5C[C@@H](O)CN5C(=O)[C@H]([C@@H](C)O)NC4=O)cc3)cc2)cc1 [anidulafungin]
caspofungin = compound: CC[C@H](C)C[C@H](C)CCCCCCCCC(=O)N[C@H]1C[C@@H](O)[C@@H](NCCN)NC(=O)[C@@H]2[C@@H](O)CCN2C(=O)[C@H]([C@H](O)CCN)NC(=O)[C@H]([C@H](O)[C@@H](O)c2ccc(O)cc2)NC(=O)[C@@H]2C[C@@H](O)CN2C(=O)[C@H]([C@@H](C)O)NC1=O [caspofungin]
itraconazole = compound: CCC(C)n1ncn(-c2ccc(N3CCN(c4ccc(OCC5COC(Cn6cncn6)(c6ccc(Cl)cc6Cl)O5)cc4)CC3)cc2)c1=O [itraconazole]
voriconazole = compound: C[C@@H](c1ncncc1F)[C@](O)(Cn1cncn1)c1ccc(F)cc1F [voriconazole]
fluconazole = compound: OC(Cn1cncn1)(Cn1cncn1)c1ccc(F)cc1F [fluconazole]
amphotericin B = compound: C[C@@H]1[C@H](O)[C@@H](C)/C=C/C=C/C=C/C=C/C=C/C=C/C=C/[C@H](O[C@@H]2O[C@H](C)[C@@H](O)[C@H](N)[C@@H]2O)C[C@@H]2O[C@](O)(C[C@@H](O)C[C@@H](O)[C@H](O)CC[C@@H](O)C[C@@H](O)CC(=O)O[C@H]1C)C[C@H](O)[C@H]2C(=O)O [amphotericin B]
micafungin = compound: CCCCCOc1ccc(-c2cc(-c3ccc(C(=O)N[C@H]4C[C@@H](O)[C@@H](O)NC(=O)[C@@H]5[C@@H](O)[C@@H](C)CN5C(=O)[C@H]([C@H](O)CC(N)=O)NC(=O)[C@H]([C@H](O)[C@@H](O)c5ccc(O)c(OS(=O)(=O)O)c5)NC(=O)[C@@H]5C[C@@H](O)CN5C(=O)[C@H]([C@@H](C)O)NC4=O)cc3)no2)cc1 [micafungin]
posaconazole = compound: CC[C@@H]([C@H](C)O)n1ncn(-c2ccc(N3CCN(c4ccc(OC[C@@H]5CO[C@@](Cn6cncn6)(c6ccc(F)cc6F)C5)cc4)CC3)cc2)c1=O [posaconazole]
flucytosine = compound: Nc1[nH]c(=O)ncc1F [flucytosine]

Test System | MIC (anidulafungin) | MIC (caspofungin) | MIC (itraconazole) | MIC (voriconazole) | MIC (fluconazole) | MIC (amphotericin B) | MIC (micafungin) | MIC (posaconazole) | MIC (flucytosine)
Candida albicans isolate 88 (Erg11p: V437I,E266D, Fur1p: WT, Tac1p: S937L,I895T,L695F,I558V,F189S,L131I) | 0.06 mg/L [S] | 0.03 mg/L [S] | ≤ 0.015 mg/L [S] | ≤ 0.008 mg/L [S] | 0.5 mg/L [S] | 0.5 mg/L [S] | ≤ 0.008 mg/L [S] | 0.015 mg/L [S] | ≤ 0.06 mg/L [S]
Candida albicans isolate 336 (Erg11p: V437I,E266D, Fur1p: WT, Tac1p: I895T,F189S,L131I) | ≤ 0.015 mg/L [S] | 0.03 mg/L [S] | 0.06 mg/L [S] | 0.03 mg/L [S] | 0.25 mg/L [S] | 0.5 mg/L [S] | 0.015 mg/L [S] | 0.03 mg/L [S] | 0.12 mg/L [S]
Candida albicans isolate 107 (Erg11p: D153E, Fur1p: WT, Tac1p: N896S) | ≤ 0.015 mg/L [S] | 0.03 mg/L [S] | ≤ 0.015 mg/L [S] | ≤ 0.008 mg/L [S] | 0.25 mg/L [S] | 0.25 mg/L [S] | 0.015 mg/L [S] | 0.015 mg/L [S] | ≤ 0.06 mg/L [S]
Candida albicans isolate 355 (Erg11p: V488I,E266D, Fur1p: WT, Tac1p: N896S,M170V,S108N) | 0.06 mg/L [S] | 0.06 mg/L [S] | 0.06 mg/L [S] | ≤ 0.008 mg/L [S] | 0.5 mg/L [S] | 0.5 mg/L [S] | 0.015 mg/L [S] | 0.03 mg/L [S] | ≤ 0.06 mg/L [S]
Candida albicans isolate 270 (Erg11p: K342R,E266D, Fur1p: WT, Tac1p: I558V,A377V,F189S,N174D,M170I,K87N) | 0.06 mg/L [S] | 0.06 mg/L [S] | 0.03 mg/L [S] | ≤ 0.008 mg/L [S] | 0.25 mg/L [S] | 0.25 mg/L [S] | 0.015 mg/L [S] | 0.03 mg/L [S] | ≤ 0.06 mg/L [S]
Candida albicans isolate 40 (Erg11p: V488I,E266D, Fur1p: WT, Tac1p: N896S,T229I,M170V,S108N) | ≤ 0.015 mg/L [S] | 0.015 mg/L [S] | 0.06 mg/L [S] | 0.015 mg/L [S] | 1 mg/L [S] | 0.25 mg/L [S] | ≤ 0.008 mg/L [S] | 0.03 mg/L [S] | ≤ 0.06 mg/L [S]
Candida albicans isolate 94 (Erg11p: E266D,G129A, Fur1p: WT, Tac1p: R869Q,A715T,L695F,I558V,A377V,F189S,M170V,L131I) | ≤ 0.015 mg/L [S] | 0.015 mg/L [S] | ≤ 0.015 mg/L [S] | ≤ 0.008 mg/L [S] | 0.25 mg/L [S] | 0.25 mg/L [S] | 0.015 mg/L [S] | 0.015 mg/L [S] | ≤ 0.06 mg/L [S]
Candida albicans isolate 288 (Erg11p: V488I,E266D, Fur1p: WT, Tac1p: N896S) | ≤ 0.015 mg/L [S] | 0.03 mg/L [S] | ≤ 0.015 mg/L [S] | ≤ 0.008 mg/L [S] | 0.25 mg/L [S] | 0.5 mg/L [S] | ≤ 0.008 mg/L [S] | ≤ 0.008 mg/L [S] | ≤ 0.06 mg/L [S]
Candida albicans isolate 310 (Erg11p: V437I,E266D, Fur1p: WT, Tac1p: F189S,N174D,M170I,A90T,K87N) | 0.12 mg/L [S] | 0.03 mg/L [S] | 0.06 mg/L [S] | 0.015 mg/L [S] | 0.5 mg/L [S] | 0.25 mg/L [S] | 0.015 mg/L [S] | 0.03 mg/L [S] | ≤ 0.06 mg/L [S]
Candida albicans isolate 257 (Erg11p: WT, Fur1p: WT, Tac1p: I895T) | ≤ 0.015 mg/L [S] | 0.03 mg/L [S] | 0.03 mg/L [S] | 0.015 mg/L [S] | 1 mg/L [S] | 0.5 mg/L [S] | ≤ 0.008 mg/L [S] | 0.03 mg/L [S] | ≤ 0.06 mg/L [S]
Candida albicans isolate 50 (Erg11p: E266D, Fur1p: WT, Tac1p: I558V,A377V,F189S,N174D,M170I,K87N) | 0.12 mg/L [S] | 0.12 mg/L [S] | 0.06 mg/L [S] | ≤ 0.008 mg/L [S] | 0.25 mg/L [S] | 1 mg/L [S] | 0.015 mg/L [S] | 0.03 mg/L [S] | ≤ 0.06 mg/L [S]
Candida albicans isolate 167 (Erg11p: E266D, Fur1p: WT, Tac1p: N896S,M170V,S108N) | 0.06 mg/L [S] | 0.03 mg/L [S] | 0.03 mg/L [S] | ≤ 0.008 mg/L [S] | 0.25 mg/L [S] | 0.25 mg/L [S] | 0.015 mg/L [S] | 0.015 mg/L [S] | ≤ 0.06 mg/L [S]
Candida albicans isolate 137 (Erg11p: WT, Fur1p: R101C, Tac1p: WT) | ≤ 0.015 mg/L [S] | 0.03 mg/L [S] | ≤ 0.015 mg/L [S] | ≤ 0.008 mg/L [S] | 0.25 mg/L [S] | 0.5 mg/L [S] | 0.015 mg/L [S] | 0.015 mg/L [S] | 0.5 mg/L [S]
Candida albicans isolate 328 (Erg11p: WT, Fur1p: WT, Tac1p: N896S,C858Y,N823K,I558V,F189S) | 0.06 mg/L [S] | 0.03 mg/L [S] | 0.06 mg/L [S] | ≤ 0.008 mg/L [S] | 0.5 mg/L [S] | 0.5 mg/L [S] | 0.015 mg/L [S] | 0.03 mg/L [S] | ≤ 0.06 mg/L [S]
Candida albicans isolate 223 (Erg11p: G465S,Y132H, Fur1p: R101C, Tac1p: R693K) | ≤ 0.015 mg/L [S] | 0.03 mg/L [S] | 1 mg/L [R] | ≥ 8 mg/L [R] | 64 mg/L [R] | 0.25 mg/L [S] | 0.03 mg/L [S] | 0.5 mg/L [R] | 0.25 mg/L [S]
Candida albicans isolate 322 (Erg11p: V488I,Y401*,E266D, Fur1p: E51K, Tac1p: N896S) | 0.06 mg/L [S] | 0.03 mg/L [S] | ≤ 0.015 mg/L [S] | ≤ 0.008 mg/L [S] | ≤ 0.12 mg/L [S] | 0.25 mg/L [S] | 0.015 mg/L [S] | ≤ 0.008 mg/L [S] | ≤ 0.06 mg/L [S]

MIC of clinical C. albicans isolates, CLSI broth microdilution (ranges and time not stated); higher = less susceptible. Call: susceptible or wild type [S] / resistant or non-wild type [R] by CLSI breakpoints or epidemiological cut-offs; intermediate and dose-dependent carry no call here (the paper groups them with resistant). '<=' and '>=' mark each drug's lowest and highest value, inferred; the source prints them plain. Isolates are numbered anew.
